Measurements from PubChem BioAssay AID504339 (National Center for Advancing Translational Sciences (NCATS), 2011).
The campaign covered roughly 390,000 compounds. About 17,000 (4.4%) were called active. Inconclusive results, whose numbers are uncertain, are shown with a selection of clear calls. The call rests on the fitted dose curve; in most records, active means well fitted inhibition curve with a large enough effect; inconclusive means small, poorly fitted or top-dose-only effect; inactive means no such curve, though single readings can be large or run the other way. Potencies beside an inconclusive call are fits to weak or partial responses and may not hold up.

Molecular target: Lysine-specific demethylase 4A (Homo sapiens) (UniProt O75164)
Test: qHTS Assay for Inhibitors of JMJD2A-Tudor Domain; further: nearly all actives have a fitted effect of over 50% in size
Settings: AlphaScreen JMJD2A-Tudor / H3K4me3 peptide binding; series mostly up to 114 µM
Potency means the concentration at half of the fitted maximal effect; tags describe the fitted curve by direction and shape.

UniProt O75164, sequence (O75164 whole entry, looked up, the tested form may be a part): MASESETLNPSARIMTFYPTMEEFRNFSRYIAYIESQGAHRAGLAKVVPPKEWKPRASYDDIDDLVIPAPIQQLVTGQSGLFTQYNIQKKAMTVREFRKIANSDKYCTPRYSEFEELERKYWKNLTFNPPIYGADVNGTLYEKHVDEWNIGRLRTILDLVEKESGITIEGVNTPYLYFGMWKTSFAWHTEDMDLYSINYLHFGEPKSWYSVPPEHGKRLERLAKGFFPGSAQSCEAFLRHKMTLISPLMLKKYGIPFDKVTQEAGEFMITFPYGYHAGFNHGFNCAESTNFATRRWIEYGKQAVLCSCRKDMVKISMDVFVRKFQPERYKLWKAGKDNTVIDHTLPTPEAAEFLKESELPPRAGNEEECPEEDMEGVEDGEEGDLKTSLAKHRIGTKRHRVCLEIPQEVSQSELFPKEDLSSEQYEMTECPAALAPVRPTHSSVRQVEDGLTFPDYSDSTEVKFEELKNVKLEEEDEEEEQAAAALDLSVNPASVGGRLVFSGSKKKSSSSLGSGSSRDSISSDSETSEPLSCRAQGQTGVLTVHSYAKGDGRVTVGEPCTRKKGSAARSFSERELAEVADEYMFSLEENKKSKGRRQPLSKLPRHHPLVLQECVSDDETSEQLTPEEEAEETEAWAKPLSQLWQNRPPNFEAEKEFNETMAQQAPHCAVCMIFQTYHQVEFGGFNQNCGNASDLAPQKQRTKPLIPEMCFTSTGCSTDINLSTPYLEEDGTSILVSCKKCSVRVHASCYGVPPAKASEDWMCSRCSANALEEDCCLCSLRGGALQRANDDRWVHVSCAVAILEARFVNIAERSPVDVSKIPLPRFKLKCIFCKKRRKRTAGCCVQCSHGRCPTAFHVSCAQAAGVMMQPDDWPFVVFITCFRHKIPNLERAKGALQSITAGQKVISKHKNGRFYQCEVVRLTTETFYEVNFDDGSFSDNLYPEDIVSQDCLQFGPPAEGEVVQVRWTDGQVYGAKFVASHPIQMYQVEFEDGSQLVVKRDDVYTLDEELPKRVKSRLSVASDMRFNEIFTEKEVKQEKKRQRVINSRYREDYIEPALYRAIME

| Structure (SMILES) | Potency |
| --- | --- |
| O=C(NC1CCCC1)C(c1ccccn1)N(C(=O)c1csnn1)C1CC1 (stereo not given) | inconclusive: 25.1 µM [inhibitor, partial curve] |
| CCOC(=O)c1cc(=O)n2nc(-c3ccccc3F)nc2s1 | inconclusive: 89.1 µM [inhibitor, single point] |
| Cc1cccc(N2CCN(CCCNC(=O)c3ccc(NC(=O)C4=CSCCO4)cc3)CC2C)c1 (stereo not given) | inconclusive: 39.8 µM [inhibitor, partial curve] |
| Cc1cccc(NC(=O)Cn2c(O)c(N=NC(=O)c3ccccc3O)c3ccccc32)c1 | inconclusive: 56.2 µM [inhibitor, partial curve] |
| Cc1cccc(C2c3[nH]c4ccccc4c3CCN2C(=O)Cc2nc(-c3ccccc3)n[nH]2)n1 (stereo not given) | inconclusive: 28.2 µM [inhibitor, full curve] |
| Cc1c(C(=O)NCc2cccc(Cl)c2)sc2nc3n(c(=O)c12)CCCC3 | active: 79.4 µM |
| Cc1sc(NC(=O)c2ccco2)c(CN2CCC(C)CC2)c1C | inconclusive: 56.2 µM [inhibitor, partial curve] |
| COc1ccc(C2=C(N3CCN(c4cccc(C)c4C)CC3)c3ccccc3C2=O)cc1 | active: 5.01 µM |
| Cc1ccc2c(c1)c(C)c(C)n2CC(O)Cn1nc(C)c(Br)c1C (stereo not given) | active: 50.1 µM |
| COc1ccc([N+](=O)[O-])cc1NC(=O)CSCc1cc(C)cc(C)c1 | inconclusive: 22.4 µM [inhibitor, partial curve] |
| O=[N+]([O-])c1ccc(S(=O)(=O)Nc2nnc(C(F)(F)F)s2)cc1 | inactive |
| COc1cccc(C2c3c(ncn(-c4cccc(OC)c4)c3=N)Oc3ccc4ccccc4c32)c1 (stereo not given) | inconclusive: 56.2 µM [inhibitor, partial curve] |
| O=[N+]([O-])c1ccc2c(c1)N([O-])C1(CCCCC1)[N+]2=O | inconclusive: 50.1 µM [inhibitor, partial curve] |
| Cc1ccc(-n2nnc(-c3cc4ccccc4nc3Cl)n2)cc1 | inconclusive: 89.1 µM [inhibitor, partial curve] |
| Cc1cccc(N2CCN(S(=O)(=O)c3c(C)nc4scc(C)n4c3=O)CC2)c1C | inactive |
| COCCNC(=O)CN(C(=O)CCC(=O)Nc1ccccn1)c1ccc(OC)cc1 | inactive |
| CCOc1ccc2c(c1)C(c1ccc(C)cc1)=NNC(c1ccc(OC)cc1)=N2 | inconclusive: 22.4 µM [inhibitor, full curve] |
| CCCCn1c(=N)n(CCCOc2ccc(F)cc2)c2ccccc21 | inactive |
| CNCCOc1ccccc1OC(C)C | active: 2.24 µM |
| COc1cc(/C=N/N=C2/C(=O)Nc3ccccc32)ccc1O | inconclusive: 35.5 µM [inhibitor, single point] |
| C=CCOC(=O)c1cc(-c2ccc(/C=C3\C(=O)NC(=O)C(C#N)=C3C)o2)ccc1Cl | active: 50.1 µM |
| COc1ccccc1-c1ccc(/C=C2/C=C(C)OC2=O)o1 | inconclusive: 56.2 µM [inhibitor, partial curve] |
| COc1ccc(-c2nc3sc(CCNC(=O)c4ccco4)c(C)n3n2)cc1 | inactive |

| Structure (SMILES) | Potency |
| --- | --- |
| Cn1cc(CN(C(=O)Nc2ccccc2)C2CCCCC2)c2ccccc21 | inconclusive: 50.1 µM [inhibitor, partial curve] |
| CCC(C)Nc1nc(N)c([N+](=O)[O-])c(NCc2ccccc2)n1 (stereo not given) | active: 56.2 µM |
| COc1ccc(NC(=O)C2CCOC(C)(C)C2)cc1 (stereo not given) | inactive |
| COc1ccccc1Nc1ncnc2c1c(C)c(C)n2CCO | inconclusive: 14.1 µM [inhibitor, partial curve] |
| C#CCOCCOCCOCCNc1nc(N2CCN(C(=O)[C@H](CC(N)=O)n3cc(C(N)[C@@H](C)CC)nn3)CC2)nc(N2CCN(C(=O)[C@H](CCCCN)n3cc([C@@H](N)CC(N)=O)nn3)CC2)n1 (stereo not given in full) | active: 79.4 µM |
| COc1ccc(C)cc1NC(C)C(=O)NC(=O)NC1CCCCC1 (stereo not given) | inconclusive: 63.1 µM [inhibitor, partial curve, poor fit] |
| COc1ccc([C@H]2CC(=O)C=C(c3ccc(F)cc3OCc3ccccc3)C2)cc1OC | inconclusive: 20 µM [inhibitor, full curve, poor fit] |
| CC(C)CC(=O)N(c1ccc(F)cc1)C1C=CS(=O)(=O)C1 (stereo not given) | inactive |
| COc1cc(/C=C/C(=O)OCC(=O)c2ccc3c(c2)NC(=O)CO3)ccc1OC(F)F | inconclusive: 15.8 µM [inhibitor, full curve] |
| Cc1cc(C)cc(C(=O)NC(CC(N)=O)c2ccc(NC3CCCCCCCCCCC3)c([N+](=O)[O-])c2)c1 (stereo not given) | inconclusive: 100 µM [inhibitor, partial curve] |
| S=c1[nH]nc(-c2ccncc2)n1/N=C/c1ccccc1Cl | active: 3.16 µM |
| O=C(c1ccco1)N1CCN(C(c2ccccc2)c2nnnn2Cc2cccs2)CC1 (stereo not given) | inactive |
| COCCn1nnnc1C(c1ccc(O)c(OC)c1)N1CCc2ccccc2C1 (stereo not given) | inconclusive: 50.1 µM [inhibitor, partial curve, poor fit] |
| CCc1ccc(/C=C/c2c[nH]c3ccccc23)[n+](CC)c1 | inconclusive: 44.7 µM [inhibitor, single point] |
| CC(=O)NNC(=S)NC(=O)c1ccccc1 | active: 20 µM |
| O=C(/C=C/c1ccc2c(c1)OCCCO2)c1ccc2ccccc2c1O | active: 28.2 µM |
| CC(C)(C)OC(=O)N1CCC(NC(=O)c2[nH]cnc2C(=O)Nc2ccc(Cl)cc2)CC1 | inactive |
| Oc1c(C(c2ccccn2)N2CCOCC2)ccc2cccnc12 (stereo not given) | active: 17.8 µM |
| O=C(NC1CC(=O)N(c2ccc(F)cc2)C1)c1ccco1 (stereo not given) | inactive |
| C/C(=N\NC(=O)c1ccc(OC2CCCC2)cc1)c1ccc(O)cc1 | inactive |
| O=S(=O)(c1ccc(Br)cc1)c1nc(-c2ccccc2)oc1N1CCOCC1 | inconclusive: 39.8 µM [inhibitor, full curve, poor fit] |
| O=C(C1CCCN(S(=O)(=O)c2cccc3nonc23)C1)N1CCC(Cc2ccccc2)CC1 (stereo not given) | inconclusive: 39.8 µM [inhibitor, partial curve] |
